# Assay results taken from publication PMC4336329 (PLoS ONE, 2015).
# In all, about 310,000 compounds went through this assay and about 2,200 (0.71%) showed an effect of 50% or more. Effects have a minus sign here. This is one part of the list.
# Target: human ether-à-go-go-related gene (hERG) potassium channel (human, UniProt Q12809)
# Assay: primary screen, population patch clamp on CHO cells stably expressing hERG
# human ether-à-go-go-related gene (hERG) potassium channel, sequence (Q12809 whole entry, looked up): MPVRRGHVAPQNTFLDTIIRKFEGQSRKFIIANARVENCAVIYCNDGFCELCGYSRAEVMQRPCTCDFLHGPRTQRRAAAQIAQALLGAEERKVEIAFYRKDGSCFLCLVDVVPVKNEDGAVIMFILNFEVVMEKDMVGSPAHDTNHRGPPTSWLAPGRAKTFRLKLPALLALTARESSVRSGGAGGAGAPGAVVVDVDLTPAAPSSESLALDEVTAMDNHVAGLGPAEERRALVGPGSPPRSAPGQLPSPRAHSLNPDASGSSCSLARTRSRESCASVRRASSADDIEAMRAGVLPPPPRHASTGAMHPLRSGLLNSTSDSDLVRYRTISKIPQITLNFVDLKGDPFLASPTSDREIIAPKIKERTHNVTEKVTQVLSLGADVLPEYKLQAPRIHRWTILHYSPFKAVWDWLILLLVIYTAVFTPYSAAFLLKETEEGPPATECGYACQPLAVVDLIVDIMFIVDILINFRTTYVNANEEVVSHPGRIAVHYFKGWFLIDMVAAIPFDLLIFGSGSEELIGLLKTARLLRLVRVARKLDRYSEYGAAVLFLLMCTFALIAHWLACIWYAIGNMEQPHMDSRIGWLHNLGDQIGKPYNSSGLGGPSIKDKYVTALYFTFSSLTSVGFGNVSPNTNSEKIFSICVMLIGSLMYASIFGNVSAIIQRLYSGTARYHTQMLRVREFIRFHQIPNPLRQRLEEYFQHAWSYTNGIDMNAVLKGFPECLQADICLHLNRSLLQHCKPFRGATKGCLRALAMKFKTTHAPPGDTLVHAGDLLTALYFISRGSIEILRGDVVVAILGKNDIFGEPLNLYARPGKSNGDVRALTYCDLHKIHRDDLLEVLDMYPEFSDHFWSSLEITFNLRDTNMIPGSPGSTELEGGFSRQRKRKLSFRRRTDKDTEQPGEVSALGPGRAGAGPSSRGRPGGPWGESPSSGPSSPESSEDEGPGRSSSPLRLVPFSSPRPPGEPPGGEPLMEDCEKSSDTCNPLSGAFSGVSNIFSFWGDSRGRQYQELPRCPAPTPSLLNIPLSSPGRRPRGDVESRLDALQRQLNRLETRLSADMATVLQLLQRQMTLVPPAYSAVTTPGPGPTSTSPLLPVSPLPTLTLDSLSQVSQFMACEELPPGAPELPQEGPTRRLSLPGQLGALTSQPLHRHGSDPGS
row,Compound,"hERG current change (%, negative = inhibition) at 1uM"
1,Nc1nnc(SCC(=O)OCC(=O)NC2CCCCC2)s1,6.52%
2,O=C1OC(c2ccc([N+](=O)[O-])cc2)=N/C1=C/N1CC2CC(C1)c1cccc(=O)n1C2 (centres unmarked),-13%
3,COc1ccc(CSC2=CS(=O)(=O)c3ccccc3N2)cc1,13.8%
4,BrCC1C[n+]2c(SCc3ccccc3)nc3sc4c(c3c2O1)CCCC4.[Br-] (centres unmarked),10.3%
5,Fc1cccc(C2NN=C(c3ccccc3)S2)c1 (centres unmarked),8.44%
6,COc1ccc(NC(=O)CSc2nnc(Cc3ccccc3)o2)c(OC)c1,9.93%
7,Cc1ccc2c(c1)C(=O)c1c(C(=O)O)cccc1-2,16.9%
8,COc1ccc(C)cc1NC(=S)N1CCN(c2ccccn2)CC1,9.91%
9,CCOC(=O)c1c(C)[nH]c(C(=O)COC(=O)/C=C/c2ccc3c(c2)OCO3)c1C,-0.52%
10,CSc1nccc(NC(=O)c2cccc(Br)c2)n1,11.8%
11,O=C(CN1C(=O)c2ccccc2C1=O)NCC(=O)OCC(=O)c1ccc(Cl)cc1,12.8%
12,CN(C)S(=O)(=O)c1cccc(N2C(=O)CC3(CCCCC3)CC2=O)c1,20.7%
13,Cl.O=C1C2CCN(CC2)C1Cc1ccc(OCc2ccccc2)cc1 (centres unmarked),-0.266%
14,Cc1ccccc1C(=O)NC(C)C(c1cccs1)N1CCOCC1 (centres unmarked),6.32%
15,COc1ccc(-n2nc(C)c3onc(C)c3c2=O)cc1,11.6%
16,O=C(CSc1ccccc1C(=O)O)NCC1CCCCC1,2.99%
17,COc1ccc(Cn2c(=O)[nH]c3cc(C(=O)N4CCN(c5ccccc5)CC4)ccc3c2=O)cc1,15.2%
18,Cc1nc(C(C)(C)O)n(-c2ccccc2)n1,7.05%
19,CCCNC(=O)NC(=O)COC(=O)c1ccc(S(=O)(=O)N(C)c2ccccc2OC)cc1,13.7%
20,CC[C@@]1(c2ccccc2OC)C(=O)N(C(=O)OC)N1C(=O)OC,17.4%
21,CC(C)(C)c1cc(OC(=O)Cc2ccccc2)ccc1O,14.2%
22,COc1ccc(-c2[nH]ncc2CN(C)C(C)c2ccncn2)c(F)c1 (centres unmarked),1.94%
23,CNC(=O)c1ccc(-n2nc(C)cc2-c2ccccc2)cc1,5.22%

row,Compound,"hERG current change (%, negative = inhibition) at 1uM"
1,Cn1nnc(NC(=O)CSc2nnnn2-c2ccc(F)cc2)n1,7.5%
2,CC(=O)O.CN1CCCC(CN2c3ccccc3Sc3ccccc32)C1 (centres unmarked),2.17%
3,Cl.NCc1ccccc1,-0.942%
4,CCCCCCC1CCC(C(=O)Nn2c(C)nc3ccccc3c2=O)CC1 (centres unmarked),17.9%
5,COc1cc(OC)cc(C(=O)N[C@H](C(=O)Nc2nc3ccc(S(C)(=O)=O)cc3s2)C(C)C)c1,6.08%
6,O=C(c1ccc2nc3ccc(Cl)cc3c(=O)n2c1)N1CCC2(CC1)OCCO2,-22.8%
7,N#C/C(=C/c1ccc(-c2ccc(C(=O)O)c(Cl)c2)o1)C(=O)NCC1CCCO1 (centres unmarked),10.3%
8,Cc1noc(C)c1COC(=O)c1cc2c3ccccc3n(C)c2s1,8.48%
9,Cc1c(N(C(=O)Nc2ccccc2)C2=NCC(C)S2)c(=O)n(-c2ccccc2)n1C (centres unmarked),-7.97%
10,C=CCOC(=O)C(=O)/C=C/c1c(C)n(C)n(-c2ccccc2)c1=O,10.6%
11,NS(=O)(=O)c1cccc(NC(=O)COC(=O)CN2C(=O)C3CC=CCC3C2=O)c1 (centres unmarked),21.2%
12,O=S(=O)(c1cccc2nonc12)N1CCCCCC1,13.5%
13,Cc1ccc(S(=O)(=O)N2CCC(=O)N(C(COCc3ccc(C(F)(F)F)cc3)C(C)C)CC2)cc1 (centres unmarked),-6.42%
14,COC(=O)Oc1ccc(/C=N/NC(=O)CSCc2ccccc2Br)cc1OC,-7.75%
15,O=C1CN(c2ccc(Cl)cc2)C(=O)CN1NC(=S)Nc1ccc(Cl)cc1,1.26%
16,CCOC(=O)c1cnn(-c2ccccc2)c1-n1cccc1C(=O)C(=O)Nc1ccccc1C(F)(F)F,1.98%
17,COc1cc(Cn2c(-c3ccc(O)c(OC)c3)nc3ccccc32)ccc1O,-9.9%
18,CCn1c(=O)cc(N2CCC3(CC2)OCCO3)[nH]c1=O,15.1%
19,COc1ccc(Br)c(C(=O)N2CCN(S(=O)(=O)c3cccs3)CC2)c1,-0.75%
20,COc1ccccc1N1CCN(C(=O)c2cn(-c3ccccc3)nc2-c2cccnc2)CC1,-0.268%
21,COC(=O)c1nc(N)sc1-c1ccc(Cl)c(Cl)c1,4.56%
22,COc1ccc(CCNC(=O)CSc2nc(C)nc3sccc23)cc1OC,1.82%
23,Cc1cc(SCC(=O)Nc2cccc(S(N)(=O)=O)c2)c(C)cc1Br,14%

row,Compound,"hERG current change (%, negative = inhibition) at 1uM"
1,Cc1c(C(=O)O)sc(=S)n1CCOc1ccccc1,7.26%
2,CC(Sc1ccc(Br)cc1)C(N)=O (centres unmarked),9.74%
3,C=CCN1C(=O)C(CC(=O)Nc2ccccc2F)S/C1=N\c1nccs1 (centres unmarked),2.23%
4,O=c1ccn(Cc2ccccc2)cc1,15.3%
5,CN(C)C(=O)CCC(=O)N1CCCC(N2CCN(c3cccc(C(F)(F)F)c3)CC2)C1 (centres unmarked),6.92%
6,CCOC(=O)c1sc2cc([N+](=O)[O-])cc(SCCO)c2c1N,11.5%
7,COc1cccc(C(=O)CN2CCN(S(=O)(=O)c3cccc([N+](=O)[O-])c3)CC2)c1,6.87%
8,O=C(CNS(=O)(=O)c1ccc([N+](=O)[O-])cc1)N/N=C/c1ccc(O)cc1O,23%
9,N#Cc1cccc(NC(=O)CSc2ccc3c4c(cccc24)C(=O)c2ccccc2-3)c1,21.4%
10,COc1ccc(C2=CC3=C(Br)C(=O)C(C)(OC(=O)c4cccs4)C(=O)C3=CO2)cc1 (centres unmarked),6.56%
11,Oc1cncc(-c2cccnc2)c1,7.49%
12,O=C(NCc1cccnc1)c1cccn1-c1ncc(C(F)(F)F)cc1Cl,14.9%
13,Cc1ccc2nc(SCC(=O)Nc3cccc(S(N)(=O)=O)c3)[nH]c2c1,14.9%
14,CCN(CC)c1nc(=S)nc(NC(C)(C)C)[nH]1,-3.82%
15,CC(CNC(=O)Cn1ccc2cc(S(=O)(=O)N3CCCC3)ccc21)c1ccccc1 (centres unmarked),6.26%
16,CCOc1ccc(NC(=O)[C@@H](NC(=O)c2ccccc2)[C@@H](C)CC)cc1,15.9%
17,O=C(NCc1cccnc1)c1cccc2c1C(=O)N(Cc1cccnc1)C2,9.64%
18,CC(=O)Nc1cc(NC(C)=O)c2nc(N)sc2c1.Cl,7.87%
19,CN(C)CCN(Cc1ccccc1)C(=O)C1CCN(c2ncnc3c2nc2n3CCCCC2)CC1,17.3%
20,COCCn1c(SCCOc2ccccc2)nc2ccccc2c1=O,1.99%
21,COC(=O)c1oc2ccc(Br)cc2c1NC(=O)CN1CCN(C)CC1,-38.4%
22,O=C(NCc1ccc(F)cc1)C(c1ccc(Cl)cc1)N(C(=O)c1csnn1)C1CC1 (centres unmarked),7.38%
23,CCOc1ccc2nc(NC(=O)C34CC5CC(CC(NC(C)=O)(C5)C3)C4)sc2c1,-2.64%

row,Compound,"hERG current change (%, negative = inhibition) at 1uM"
1,CCOc1cc2c(cc1OCC)-n1cccc1C(c1ccccc1F)NC2.Cl (centres unmarked),5.64%
2,Cc1ccc(S(=O)(=O)NN2C(=O)c3ccccc3NC2C)cc1 (centres unmarked),-1.12%
3,O=C(O)CNS(=O)(=O)c1ccc(Br)s1,1.25%
4,CCCCOc1cc(=O)[nH]c(=O)[nH]1,3%
5,O=C(NC(=S)NCCO)c1cn(-c2ccccc2)nc1-c1ccccc1,21.2%
6,O=C(O)c1ccc2c(c1)C(=O)N(c1ccccc1-c1ccccc1)C2=O,9.06%
7,Cc1cccc(Nc2ccc([N+](=O)[O-])cc2C(=O)O)c1,2.7%
8,CCCCN(CCCC)C(=O)C1CC=CCC1C(=O)O (centres unmarked),11.8%
9,CCOC(=O)C(NC(=O)C1CCCN1C(=O)OCc1ccccc1)C(=O)OCC (centres unmarked),4.03%
10,COc1ccc(N2C(=O)C(Cl)=C(N3CCCC(C)C3)C2=O)cc1 (centres unmarked),9.04%
11,COc1ccc(-c2noc(N3CCC(C(=O)NCc4ccccc4Cl)CC3)n2)cc1,-0.0528%
12,CCc1ccc(S(=O)(=O)N2c3ccc(C)cc3C3CN(C)CCC32)cc1 (centres unmarked),-27.7%
13,COC(C[C@H]1O[C@H]1C(=O)[C@@H](C)OCc1ccccc1)OC,22.2%
14,CCc1c(O)nc(SCC(=O)N2CCCCC2)n(-c2ccccc2C)c1=O,6.3%
15,CC(=O)C1=C(O)C(=O)N(c2ccc(Br)cc2)C1c1ccc(Cl)cc1 (centres unmarked),15.3%
16,O=C(CN(Cc1ccccc1Cl)C(=O)c1csnn1)NCc1ccc2c(c1)OCO2,-4.05%
17,CSc1ccc(-c2cc(=O)c3ccccc3o2)cc1,11.2%
18,Nc1ccc2c(c1)C(=O)N(CCCCCC(=O)O)C2,9.08%
19,CCOc1ccc(-n2c(-c3ccccc3)c[n+]3c2CCCCC3)cc1.[Br-],-10.4%
20,CN1CCN(c2oc(-c3ccccc3F)nc2S(=O)(=O)c2ccc(Cl)cc2)CC1,8.47%
